Measurements reported in PubChem BioAssay AID463173 (ICCB-Longwood Screening Facility, Harvard Medical School, 2010).
About 1,700 (3.3%) of roughly 52,000 compounds were called active. Cut-off read from the data, not from the text of the source: active = survival mostly below about 52% (no sharp cut-off); inactive = mostly above about 56%. Some of the results follow.

tested on: Wild type; experiment: growth inhibition of S. aureus wild type versus tarO mutant, primary screen, teichoic acid synthesis inhibitors, RN4220, OD600 (AID 463173); details: S. aureus RN4220 wild type/DeltatarO growth, OD600, 18 h, stronger effect = lower value, screened at 18.75 µg/mL (by protocol)

Compound	survival
Cc1ccc(NC(=O)c2cc(S(=O)(=O)NC3CCCCCC3)ccc2F)cc1F	inactive: 79%
S=C(NCc1ccc2c(c1)OCO2)Nc1ccccc1	inactive: 108%
COc1ccc2[nH]cc(CCN=C(NC(=O)c3cccc(Cl)c3)Nc3nc(C)cc(C)n3)c2c1	inactive: 60%
C/C(=N\OC(=O)c1nn(C)cc1Br)c1ccc(Cl)cc1Cl	inactive: 110%
CC1=C(C(=O)NCc2ccc(Cl)cc2)C2(CCCCCC2)OC1=O	inactive: 101%
COc1ccc(-c2ccc3c(N)c(C(=O)Nc4cccc(C)c4)sc3n2)cc1	inactive: 92%
COc1cccc(CSc2nc3n(n2)C(c2cccnc2)C(C(=O)Nc2ccccc2C)=C(C)N3)c1 (configuration not stated)	inactive: 83%
COc1ccc(C2(O)CC3CCC(C2)N3c2cc(C)nc(-c3ccccc3)n2)cc1 (configuration not stated)	inactive: 98%
Cc1ccc(N2CC(NC(=O)CCc3ccccc3)CC2=O)cc1 (configuration not stated)	active: -3%
COc1ccccc1C(=O)NC(=O)Nc1ccc(-n2nc(C(F)(F)F)cc2C(F)(F)F)cc1	inactive: 101%
COc1ccccc1C(=O)Nc1ccc(C(=O)OCc2cc(=O)n3ccsc3n2)cc1	inactive: 72%
CCOC(=O)c1sc(NC(=O)c2cc3nc(-c4ccc(Br)cc4)cc(C(F)(F)F)n3n2)c(C(=O)OCC)c1C	inactive: 118%
Cn1nc(CC(=O)Nc2ccc3c(c2)CCC3)c2ccccc2c1=O	inactive: 97%
Cc1nc2cc(C(=O)O)ccc2n1-c1ccc(C(C)C)cc1	inactive: 81%
Cc1cccc(N2CCN(C(=O)Cn3c(=O)c4cccn4c4ccc(F)cc43)CC2)c1C	inactive: 85%
CCOC(=O)CCn1nc(C)c2c(C)n(-c3ccccc3)nc2c1=O	inactive: 87%
COc1ccc(Br)cc1CSC(=N)N	inactive: 106%
Cc1nc2nc(SCC(=O)NCc3ccccc3)nn2c(C)c1Cc1ccccc1	active: 0%
CC(C)CC(=O)Nc1ccc(Cl)c(-c2nc3ccccc3[nH]2)c1	inactive: 60%

Compound	survival
Cc1ccc(NC(=O)c2ccc(Br)cc2)c(C(=O)c2ccccc2)c1	active: -2%
N#Cc1ccc(NS(=O)(=O)c2ccc(-c3cnc(C4CC4)o3)cc2)cc1	inactive: 66%
COc1ccc(OC)c(CNC(=O)CN2C(=O)CCn3nc(-c4cn(C)c5ccccc45)cc32)c1	inactive: 75%
COc1ccccc1N(CC(O)Cn1ccnc1C)S(=O)(=O)c1ccc(C)cc1 (configuration not stated)	inactive: 105%
CCOc1nc(NC(=O)NS(=O)(=O)Oc2ccccc2Cl)nc(-c2ccccc2)n1	inactive: 74%
Cc1ccc(C)n1-c1nnc(N2CCCC(C(=O)NCc3ccccc3)C2)s1 (configuration not stated)	inactive: 82%
COc1cc2nc(NCC(C)c3ccccc3)n3nc(-c4ccccc4)nc3c2cc1OC (configuration not stated)	inactive: 88%
Cc1ccc(NC(=O)CCc2c(C)nc3nc(C)nn3c2C)c(Cl)c1	inactive: 70%
CCOC(=O)c1ccccc1NC(=O)N(Cc1ccco1)C1CCN(C(C)=O)CC1	inactive: 134%
CNC(=O)c1ccc(Nc2nnc(-c3ccc(C)c(S(=O)(=O)N4CCOCC4)c3)c3ccccc23)cc1	inactive: 78%
CCc1cccc(NC(=O)CN2C=NS(=O)(=O)c3ccccc32)c1	inactive: 70%
Cc1cccc(-c2nc(Cn3c(SCc4cc(C)ccc4C)nc4ccncc43)c(C)o2)c1	inactive: 33%
O=C(NCc1ccccc1Cl)C1CCC(CNS(=O)(=O)c2ccc(Br)s2)CC1 (configuration not stated)	inactive: 146%
CCc1ccc(NC(=O)CSc2nc3ccsc3c(=O)n2C(C)CC)cc1 (configuration not stated)	inactive: 75%
O=C(c1ccco1)n1nc(-c2ccccc2)nc1NCc1ccccc1Cl	inactive: 90%
CC(=O)Nc1ccc(S(=O)(=O)NCCc2csc3nc(-c4cccc(C)c4)nn23)cc1	inactive: 59%
Cc1ccc(N(Cc2cccs2)C(=O)COc2ccccc2[N+](=O)[O-])cc1	inactive: 78%
COc1ccc(CCNC(=O)c2nn(C)c3c2CSc2ccccc2-3)cc1OC	inactive: 84%
O=C(NCc1ccccc1)C(=O)NCC(c1cccnc1)N1CCN(c2ccccc2)CC1 (configuration not stated)	inactive: 82%

Compound	survival
Cc1ccc(-c2nn3c(-c4ccc(C)cc4)nnc3c3ccccc23)cc1	active: 20%
O=C(CCCn1c2ccccc2c(=O)c2ccccc21)Nc1ccc(F)cc1Cl	inactive: 80%
COc1cc(CN(C(=O)c2oc3ccccc3c2C)C2CCS(=O)(=O)C2)cc(OC)c1OC (configuration not stated)	inactive: 81%
COc1ccccc1-n1c(SCC(=O)Nc2ccc(C)cc2)nc(O)cc1=O	inactive: 70%
Cc1ccc(-c2nc(S(=O)(=O)c3ccc(C)cc3)c(SCC(=O)NC3CCCCC3)o2)cc1	inactive: 70%
COc1ccccc1CNC(=O)CCC1N=C2c3ccccc3N=C(SCC(=O)NCCc3ccc(OC)c(OC)c3)N2C1=O (configuration not stated)	inactive: 101%
COc1cccc(NC(=O)c2cc3c(=O)n(Cc4cccnc4)ccc3nc2C)c1	inactive: 78%
CCc1ccc(-c2cc(C)no2)cc1S(=O)(=O)Nc1ccc(Cl)cc1	inactive: 74%
COc1ccc(-c2noc(-c3ccc(NC(C)c4ccccc4)c([N+](=O)[O-])c3)n2)cc1OC (configuration not stated)	inactive: 85%
COc1ccc(NC(=O)OCC(F)(F)F)cc1	inactive: 109%
COc1cc(NS(=O)(=O)c2ccc3oc(=O)c4ncn(C)c4c3c2)cc(OC)c1	inactive: 134%
O=C(Nc1cccc(C(F)(F)F)c1)c1cccnc1NCCO	inactive: 112%
CCN1CCC(N(Cc2ccc3c(c2)OCO3)C(=O)Nc2ccccc2OC)CC1	inactive: 72%
CCOC(=O)c1c(C)[nH]c(CCC(=O)NCc2ccccc2C)c1C	inactive: 71%
CCOc1ccccc1CN(CCc1ccc2c(c1)OCO2)Cc1cccc(OC)c1OC	inactive: 41%
CN(C)c1ccc(NC(=O)CSC2=Nc3ccccc3C3=NC(CC(=O)NCc4ccccc4)C(=O)N23)cc1 (configuration not stated)	inactive: 127%
CCCN1C(=O)c2[nH]nc(-c3ccc(F)cc3)c2C1c1ccccn1 (configuration not stated)	inactive: 82%
CC1CN(C(=O)N2CCC(C(=O)NC3CCCCCC3)CC2)c2ccccc2O1 (configuration not stated)	inactive: 86%
COc1cccc(C2CC(=O)N3CN(C4CCCCC4)CSC3=C2C#N)c1 (configuration not stated)	inactive: 82%
